Results on 91 compounds are retold here after article PMC4336329 (PLoS ONE, 2015).

The structures appear in SMILES notation. Screen size: about 310,000 compounds; about 14,000 (4.5%) showed an effect of 50% or more. The effect is printed as a negative number. This is one part of the list.
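Also: peak tail current of the secondary pulse compared with the same well before compound.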

Sequence of human ether-à-go-go-related gene (hERG) potassium channel (Q12809 whole entry, looked up): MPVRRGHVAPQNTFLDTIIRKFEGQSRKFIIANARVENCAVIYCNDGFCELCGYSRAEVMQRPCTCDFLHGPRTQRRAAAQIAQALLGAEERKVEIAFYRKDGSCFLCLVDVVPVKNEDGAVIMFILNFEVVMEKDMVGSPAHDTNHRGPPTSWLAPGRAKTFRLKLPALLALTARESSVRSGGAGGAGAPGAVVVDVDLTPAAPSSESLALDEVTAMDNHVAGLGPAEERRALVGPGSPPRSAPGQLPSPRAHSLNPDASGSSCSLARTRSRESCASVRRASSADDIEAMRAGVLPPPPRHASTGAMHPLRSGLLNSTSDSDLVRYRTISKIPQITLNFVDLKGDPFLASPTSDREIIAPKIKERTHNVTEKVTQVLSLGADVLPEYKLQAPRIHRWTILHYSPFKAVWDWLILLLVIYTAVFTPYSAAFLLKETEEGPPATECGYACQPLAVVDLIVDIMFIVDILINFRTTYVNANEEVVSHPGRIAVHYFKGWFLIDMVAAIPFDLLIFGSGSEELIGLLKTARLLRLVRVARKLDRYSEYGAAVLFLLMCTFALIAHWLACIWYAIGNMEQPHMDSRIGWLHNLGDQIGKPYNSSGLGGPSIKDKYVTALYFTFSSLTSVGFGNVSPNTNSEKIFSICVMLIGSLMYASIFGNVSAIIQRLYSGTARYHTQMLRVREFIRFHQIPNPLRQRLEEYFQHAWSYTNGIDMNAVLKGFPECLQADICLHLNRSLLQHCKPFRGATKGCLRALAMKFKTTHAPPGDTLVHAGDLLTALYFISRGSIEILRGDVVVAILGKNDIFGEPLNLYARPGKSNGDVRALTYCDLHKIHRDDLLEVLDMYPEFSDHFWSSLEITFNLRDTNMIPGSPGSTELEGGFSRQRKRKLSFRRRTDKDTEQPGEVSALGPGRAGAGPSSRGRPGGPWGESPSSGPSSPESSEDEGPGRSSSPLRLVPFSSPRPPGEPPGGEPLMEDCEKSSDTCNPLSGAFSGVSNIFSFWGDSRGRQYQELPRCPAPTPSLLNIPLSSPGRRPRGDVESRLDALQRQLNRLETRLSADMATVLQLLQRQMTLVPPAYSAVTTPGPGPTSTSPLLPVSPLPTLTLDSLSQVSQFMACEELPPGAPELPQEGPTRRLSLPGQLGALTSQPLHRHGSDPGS

The test concerns the target human ether-à-go-go-related gene (hERG) potassium channel (human, UniProt Q12809). Briefly: primary screen, population patch clamp on CHO cells stably expressing hERG.
With `Cc1cccc(N2CCN(C(=O)CCCn3c(=S)[nH]c4cc5c(cc4c3=O)OCO5)CC2)c1C`, the “hERG current change (%, negative = inhibition) at 10uM” value turned out to be 12%.
The same measure for `O=C(O)C(Cc1c[nH]c2ccccc12)N1Cc2ccccc2C1=O` (stereo not shown): 9.24%; for `Clc1nc(-c2n[nH]nc2Cl)n[nH]1`: 0.0636%; for `NS(=O)(=O)OCc1ccc(C(F)(F)F)cc1`: 1.9%.
With `Cc1cccc(NC(=S)N2CCCC2)c1` the figure was 11.1%.
The same measure for `CC(=O)c1cnc(SCCN2C(=O)c3ccccc3C2=O)nc1C`: -2.37%; for `COc1cccc(-c2nnc(NC(=O)c3ccc4ncsc4c3)o2)c1`: -8.13%.
For `O=C(COC(=O)c1c(F)cccc1F)Nc1ccccc1OC(F)F`, the “hERG current change (%, negative = inhibition) at 10uM” value worked out at 17.3%.
The same measure for `O=C(COc1c(Cl)cccc1Cl)Nc1ccccc1N1CCCC1`: 1.77%; for `Cc1ccc(S(=O)(=O)N(C)C)cc1NC(=O)/C=C/c1cccs1`: -8.78%; for `O=C(Nc1ccccc1N1CCCCC1)c1ncoc1-c1ccc(F)cc1`: 5.73%.
With `O=c1[nH]c(=O)n(Cc2ccco2)c(O)c1C=NC1CC1` the figure was 9.35%.
With `COc1ccccc1CNC(=O)c1nn(C)c2c1CS(=O)(=O)c1ccccc1-2` the figure was 7.21%; with `CC(C)N(Cc1ccccc1)C(=O)Cn1c(=O)cnc2ccccc21`, -24.6%.
As for `Cc1nnc(NC(=O)c2ccc(Br)o2)s1`, the “hERG current change (%, negative = inhibition) at 10uM” value was determined as 18.7%.
With `COc1ccc(/C=C2\SC(=S)N(CCC(=O)NCCCn3ccnc3)C2=O)cc1` the figure was -28.5%.
Regarding `COc1ccc2[nH]c(C(=O)Nc3ccc4c(c3)OCO4)cc2c1`, the “hERG current change (%, negative = inhibition) at 10uM” value was found to be 10.6%.
With `Cl.O=C(CN1CCCCC1)c1ccc2c(c1)OCO2`, the “hERG current change (%, negative = inhibition) at 10uM” value was -4.7%.
With `COc1cc2nc3occc3c(OC)c2cc1OC` the figure was -9.31%; with `Cc1cc(=O)n2[nH]c(N)c(N=Nc3ccccc3)c2n1`, -2.95%; with `O=C(c1cc(-c2ccccc2Cl)nc2ccccc12)N1CCOCC1`, -6.68%.
As for `COC(=O)N/N=C/c1ccc(OS(=O)(=O)c2ccc(C)cc2)c(OC)c1`, the “hERG current change (%, negative = inhibition) at 10uM” value is listed as -17.2%.
`COc1ccc(N/C=C\C(=O)c2ccc3ccccc3c2)cc1`: the “hERG current change (%, negative = inhibition) at 10uM” value stood at 14.3%.
With `CN1C(=O)c2cccc3c(N)ccc(c23)C1=O` the figure was 7.03%.
The same measure for `CCCOc1ccccc1N/C(=N/c1nc(C)cc(C)n1)NC(=O)Nc1ccc(Cl)cc1`: -1.32%; for `CCN(CC)c1nc(C)nc2c1sc(=S)n2C`: -1.82%; for `O=C(CC1CCCC1)N1CCCC(Nc2ccc(F)cc2)C1` (stereo not shown): 2.02%.
With `Cc1nc(SCC(=O)NCC2CCCO2)c2c3c(sc2n1)CCC3` (stereo not shown) the figure was -26.7%; with `O=C(CCN1C(=O)/C(=C/c2cccs2)SC1=S)Nc1cccc(C(=O)O)c1`, 22.7%.
On to `CCC1CCCCN1Cc1ccc(N)cc1` (stereo not shown), for which the “hERG current change (%, negative = inhibition) at 10uM” value is -1.13%.
The same measure for `CCOC(=O)C1=C(COC(=O)CCOc2cc(C)ccc2C)NC(=O)NC1C` (stereo not shown): -26.5%.
With `CCn1c(O)c(C=Nc2ccccc2)n(-c2ccccc2)c1=S` the figure was 4.53%.
With `COc1cc(/C=N/NC(=O)CCN2CCCCC2)ccc1O` the figure was -12%.
As to `CCOC(=O)C1CCCN(S(=O)(=O)Cc2ccc(Cl)cc2)C1` (stereo not shown), the “hERG current change (%, negative = inhibition) at 10uM” value is on record as -5.86%.
With `Cc1nn(-c2ccccc2)c(C)c1/C=N/NC(=O)c1cc(C2CC2)[nH]n1` the figure was -6.3%.
The same measure for `Cc1ccc(S(=O)(=O)NCCc2nc3ccccc3[nH]2)cc1`: 12.9%.
Take `Cc1cccc(Cn2cc(/C=C/[N+](=O)[O-])c3ccccc32)c1`: the “hERG current change (%, negative = inhibition) at 10uM” value was -12.2%.
`CCCN(CC1CC1)c1nc(N)c(C#N)c(CC#N)c1C#N`: the “hERG current change (%, negative = inhibition) at 10uM” value was -0.666%.
Turning to `O=C(c1ccc2c3n(nc2c1)-c1ccc(Cl)cc1CO3)N1CCCCC1`, the “hERG current change (%, negative = inhibition) at 10uM” value was -15.1%.
With `Cc1occc1-c1nnc(SCC(=O)Nc2ccccc2)n1Cc1ccccc1` the figure was -76.3%.
With `Cc1ccc(C(=O)NNC(=O)c2ccc3c(c2)OCCO3)cc1` the figure was -7.92%; with `CCN1CCN(C(=S)Nc2cccc(C(F)(F)F)c2)CC1`, -7.79%; with `O=C(CC(=O)N/N=C/c1ccc(Cl)cc1Cl)NCc1ccccc1`, -4.37%.
The same measure for `Cn1cccc1C(=O)NCc1ccc(Cl)cc1`: 0.265%; for `CN1C(=O)NC(c2ccc(O)cc2)C2=C1CN(c1ccccc1)C2=O` (stereo not shown): -11.9%.
Regarding `CCCN(CCC)CCNC(=O)C1c2ccccc2C(=O)N2CCc3ccccc3C12` (stereo not shown), the “hERG current change (%, negative = inhibition) at 10uM” value is reported as -11%.
For `CCOC(=O)c1sc(NC(=O)c2cc(-c3ccccc3)nc3ccccc23)c(C#N)c1C`, the “hERG current change (%, negative = inhibition) at 10uM” value is on record as 20.6%.
The same measure for `CCOC(=O)N1CCN(C(=O)c2ccc3nc(SCc4ccc(F)cc4)n(C)c3c2)CC1`: -45.5%; for `COc1cc(C(=O)NCC2CCCCC2)cc(OC)c1OC`: -67.3%; for `COc1cccc(/C=N/NC(=O)c2[nH]c(C)c(C(=O)N/N=C/c3cccc(OC)c3O)c2C)c1O`: 11.7%.
The same measure for `CNC(=O)c1ccc(NC(=O)Cc2ccc(S(=O)(=O)N3CCOCC3)s2)cc1`: 13.2%; for `Cc1csc2ncnc(NC3CCN(Cc4ccccc4)CC3)c12`: -65.5%.
For `Cc1nc(C)c(-c2ccc(SCC(=O)Nc3cccc(F)c3)nn2)s1`, the “hERG current change (%, negative = inhibition) at 10uM” value worked out at 8.66%.
With `Cc1ccc(S(=O)(=O)/N=C(/Nc2cccc3ccccc23)c2ccc(F)cc2)cc1`, the “hERG current change (%, negative = inhibition) at 10uM” value is on record as -12.4%.
For the compound `CC(=O)Nc1c(C(=O)N2CCCCCC2)cnn1-c1ccccc1Cl`, the “hERG current change (%, negative = inhibition) at 10uM” value came to 6.47%.
The same measure for `CCCCOc1ccc(CC(=O)NCC(=O)O)cc1`: 6.54%.
In the case of `CCOC(=O)c1c(NC(=O)Cn2cc([N+](=O)[O-])cn2)sc2c1CCC2`, the “hERG current change (%, negative = inhibition) at 10uM” value is given as -11.6%.
On to `CCCN(CC(=O)Nc1ccccc1C)C(=O)c1ccc(N2CCCC2=O)cc1`, for which the “hERG current change (%, negative = inhibition) at 10uM” value is on record as -4.11%.
With `Cc1ccnc(NC(=O)c2ccc(S(=O)(=O)N3CCC(C)CC3)cc2)c1` the figure was -5.75%; with `O=C(c1cc(Sc2cccc(Cl)c2)nc2ccccc12)N1CCN(c2ccccn2)CC1`, -10.7%; with `O=C(CCN1CCCCC1)N=Nc1c(O)[nH]c2ccccc12`, 11.3%.
As for `COc1ccc(-c2nnn(CC(=O)NC3CCCc4ccccc43)n2)cc1OC` (stereo not shown), the “hERG current change (%, negative = inhibition) at 10uM” value stood at 8.26%.
For `NNC(=O)C=C1CCN(c2ncc(C(F)(F)F)cc2Cl)CC1`, the “hERG current change (%, negative = inhibition) at 10uM” value is 4.01%.
`O=C(Nc1nnc(-c2ccccc2)o1)c1cccc(N2C(=O)CCC2=O)c1`: the “hERG current change (%, negative = inhibition) at 10uM” value is 9.91%.
Consider `CC1CCCN(CCCNC(=O)c2ccc(NC(=O)C3=CSCCO3)cc2)C1` (stereo not shown), for which the “hERG current change (%, negative = inhibition) at 10uM” value is recorded as 2.91%.
The same measure for `CCCC(C)NC(=O)c1cc(S(=O)(=O)N2CCCCCC2)ccc1OC` (stereo not shown): -54.4%.
As for `C/C(=N\Nc1cc(C(F)(F)F)ccc1Cl)c1ccncc1`, the “hERG current change (%, negative = inhibition) at 10uM” value is 13.7%.
The same measure for `CN(C)c1ccc(/C=C2\SC(=S)N(Nc3ncc(C(F)(F)F)cc3Cl)C2=O)cc1`: -19.9%; for `O=C(Nc1ccncc1)C1CCN(S(=O)(=O)c2ccccc2)CC1`: 3.04%; for `CCn1c(SC/C=C/c2ccccc2)nnc1-c1cccs1`: -66.3%.
As for `CCOC(=O)C1CCCN(S(=O)(=O)c2ccc3ccccc3c2)C1` (stereo not shown), the “hERG current change (%, negative = inhibition) at 10uM” value was -29.8%.
Take `O=C(CSc1cccc[n+]1[O-])c1ccc(Cl)cc1`: the “hERG current change (%, negative = inhibition) at 10uM” value is reported as -21.8%.
The same measure for `O=C(O)CNS(=O)(=O)c1ccc2[nH]c(=O)c(=O)[nH]c2c1`: 17.7%; for `CCN1CCN(C(c2cccs2)C(C)NC(=O)C(C)C)CC1` (stereo not shown): 9.03%.
The same measure for `C=CCN=C(SCC(=O)c1ccc(Cl)cc1)c1c(O)n(C)c(=O)n(C)c1=O`: -9.99%.
With `O=C(CS(=O)(=O)c1ccccc1)Nc1nnc(C(F)(F)F)s1` the figure was 23.3%; with `O=C(NC(Cc1ccccc1)c1ccc2c(c1)OCCCO2)c1ccc(F)cc1` (stereo not shown), 8.05%.
With `O=C(CCc1ccccc1)Nc1ccc(S(=O)(=O)N2CCOCC2)cc1`, the “hERG current change (%, negative = inhibition) at 10uM” value was -28.1%.
With `Cc1cccc(Nc2nc(C)cc(C)c2C#N)c1` the figure was 11.1%; with `CN(C)S(=O)(=O)c1cc(NC2CC(=O)N(c3ccc(F)cc3)C2=O)ccc1Cl` (stereo not shown), -51.1%; with `O=c1c2ccccc2nc(CNc2ccccc2)n1-c1ccccc1`, 16.4%.
For the compound `O=C(CSc1cc(Cl)ccc1Cl)NC1CCCC1`, the “hERG current change (%, negative = inhibition) at 10uM” value was 1.73%.
As to `O=C1CCC(C(=O)N2CCSCC2)CN1Cc1ccc(Cl)cc1` (stereo not shown), the “hERG current change (%, negative = inhibition) at 10uM” value is -5.13%.
With `Cc1ccc(NC(=O)c2ccc(C)c(S(=O)(=O)N3CCCCC3)c2)nc1` the figure was -23%; with `CC(=O)c1cc(C(C)=O)c(C)nc1C`, 15.9%.
The same measure for `CC(c1ccccc1)N(C)C(=O)CSc1nnc(C2CC2)n1C1CC1` (stereo not shown): -2.75%; for `CCc1ccc(C(=O)NNc2cc(Cl)ccc2Cl)cc1`: 8.65%.
As for `COC(=O)CSc1nnc(CNC(=O)c2cc(OC)c(OC)c(OC)c2)n1C`, the “hERG current change (%, negative = inhibition) at 10uM” value is recorded as -0.781%.
Take `Cc1cc(NC(=O)Cc2cccs2)no1`: the “hERG current change (%, negative = inhibition) at 10uM” value worked out at 12.3%.
On to `CC(=O)c1cccc(OCC(=O)Nc2cc(S(=O)(=O)N3CCOCC3)ccc2N2CCCC2)c1`, for which the “hERG current change (%, negative = inhibition) at 10uM” value is -15.4%.
With `CCc1ccccc1N1C[C@@]23C=C[C@@H](O2)C(C(=O)OCC(C)C)[C@H]3C1=O` (stereo partly shown) the figure was -7.71%.
